{"source": "PubChem BioAssay AID328", "about": "(DTP/NCI, 2004)", "tested_on": "BDF1 mice, P388 leukemia ip, median survival T/C", "assay": "NCI In Vivo Anticancer Drug Screen. Data for tumor model P388 Leukemia (intraperitoneal) in B6D2F1 (BDF1) mice", "conditions": "endpoint: median survival time, higher = longer survival", "outline": "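Mice carrying the transplantable tumour receive compound or vehicle. Survival is followed in each arm, and the treated measure is divided by the vehicle measure.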", "key": {"[1]": {"conditions": "dose: 75.0 mg/kg/injection, schedule: Q04DX003 (ip), vehicle: saline"}, "[2]": {"conditions": "dose: 100.0 mg/kg/injection, schedule: Q01DX009 (ip), vehicle: Klucel (hydroxypropylcellulose) (HPC)"}, "[3]": {"conditions": "dose: 400.0 mg/kg/injection, schedule: Q01DX009 (ip), vehicle: Klucel (hydroxypropylcellulose) (HPC)"}}, "note": "Toxic doses and inconclusive results are not listed. The source holds more than one record for some entries. This is not the full list of results. The source may hold further records. The records of an entry are repeats in other runs, samples, wells, individuals or studies."}
{"smiles": "Oc1ccccc1OB(Oc1ccccc1O)N(CCCl)CCCl", "values": [{"measurement": "T/C", "setting": "[1]", "result": "119 % of control, 179 % of control, 186 % of control"}, {"measurement": "T/C", "setting": "dose: 112.5 mg/kg/injection, schedule: Q04DX003 (ip), vehicle: saline", "result": "100 % of control and 180 % of control"}]}
{"smiles": "CCCC(=O)Nc1ccn(C2OC(COC(=O)CCC)C(OC(=O)CCC)C2OC(=O)CCC)c(=O)n1", "note": "(stereo not given)", "values": [{"measurement": "T/C", "setting": "[2]", "result": "122 % of control, 150 % of control, 168 % of control"}]}
{"smiles": "O=NN(CCCl)C(=O)NC1CCCCC1", "values": [{"measurement": "T/C", "setting": "dose: 40.0 mg/kg/injection, schedule: Q01DX001 (oral), vehicle: carboxymethylcellulose (CMC)", "result": "124 % of control and 191 % of control"}]}
{"smiles": "COCCOCCN1CCN(CCCN2c3ccccc3Sc3ccc(C(F)(F)F)cc32)CC1", "values": [{"measurement": "T/C", "setting": "dose: 6.25 mg/kg/injection, schedule: Q04DX003 (ip), vehicle: saline", "result": "112 % of control and 161 % of control"}]}
{"smiles": "CNCCN(C)CCN(C)Cc1ccc(OC)cc1", "values": [{"measurement": "T/C", "setting": "dose: 200.0 mg/kg/injection, schedule: Q01DX009 (ip), vehicle: water", "result": "101 % of control and 192 % of control"}]}
{"smiles": "CCc1cc2c(cc1C(=O)CBr)C(C)(C)CCC2(C)C", "values": [{"measurement": "T/C", "setting": "dose: 35.0 mg/kg/injection, schedule: Q04DX003 (ip), vehicle: Klucel (hydroxypropylcellulose) (HPC)", "result": "115 % of control and 155 % of control"}]}
{"smiles": "Cc1ccc(C2NC(=O)c3ccccc3N2)s1", "note": "(stereo not given)", "values": [{"measurement": "T/C", "setting": "[3]", "result": "123 % of control, 188 % of control, 190 % of control"}]}
{"smiles": "Nc1nc(SCc2ccccn2)c2[nH]cnc2n1", "values": [{"measurement": "T/C", "setting": "dose: 100.0 mg/kg/injection, schedule: Q04DX003 (ip), vehicle: Klucel (hydroxypropylcellulose) (HPC)", "result": "100 % of control and 150 % of control"}]}
{"smiles": "Nc1ncc(CNc2ccc(C(=O)NC(CCC(=O)O)C(=O)O)cc2)c(N)n1", "note": "(stereo not given)", "values": [{"measurement": "T/C", "setting": "[2]", "result": "99 % of control and 150 % of control"}]}
{"smiles": "CCC(c1ccc2cc(OC)ccc2c1)C(C)(C)C(=O)F", "note": "(stereo not given)", "values": [{"measurement": "T/C", "setting": "dose: 50.0 mg/kg/injection, schedule: Q01DX009 (ip), vehicle: Klucel (hydroxypropylcellulose) (HPC)", "result": "104 % of control and 155 % of control"}]}
{"smiles": "CCC(C)P(=O)(N1CC1)N1CC1", "note": "(stereo not given)", "values": [{"measurement": "T/C", "setting": "dose: 16.5 mg/kg/injection, schedule: Q04DX003 (ip), vehicle: saline", "result": "120 % of control and 181 % of control"}, {"measurement": "T/C", "setting": "dose: 25.0 mg/kg/injection, schedule: Q04DX003 (ip), vehicle: saline", "result": "86 % of control and 170 % of control"}]}
{"smiles": "OCC1OC(n2cnc3cncnc32)C(O)C1O", "note": "(stereo not given)", "values": [{"measurement": "T/C", "setting": "dose: 3.13 mg/kg/injection, schedule: Q01DX009 (ip), vehicle: saline", "result": "122 % of control, 152 % of control, 160 % of control"}]}
{"smiles": "CC(C)C[C@H](O)C(=O)O", "values": [{"measurement": "T/C", "setting": "dose: 50.0 mg/kg/injection, schedule: Q01DX009 (ip), vehicle: saline", "result": "104 % of control and 150 % of control"}]}
{"smiles": "Cc1ccc(S(=O)(=O)OCCN(CCOS(=O)(=O)c2ccc(C)cc2)c2ccc(F)cc2)cc1", "values": [{"measurement": "T/C", "setting": "dose: 100.0 mg/kg/injection, schedule: Q01DX009 (ip), vehicle: other", "result": "113 % of control, 163 % of control, 168 % of control"}]}
{"smiles": "O=C(NO)c1ccccc1", "values": [{"measurement": "T/C", "setting": "[3]", "result": "109 % of control, 154 % of control, 179 % of control"}]}
{"smiles": "CCCCNP(=O)(N1CC1C)N1CC1C", "note": "(stereo not given)", "values": [{"measurement": "T/C", "setting": "[1]", "result": "108 % of control and 154 % of control"}]}
{"smiles": "CCC[CH2][Sn]1([CH2]CCC)[O]OC(c2ccccc2)[O]1", "note": "(stereo not given)", "values": [{"measurement": "T/C", "setting": "dose: 3.0 mg/kg/injection, schedule: Q01DX009 (ip), vehicle: saline with Tween-80", "result": "110 % of control and 150 % of control"}]}
{"smiles": "CCCCCCCCCCCC[n+]1cccc2ccccc21", "values": [{"measurement": "T/C", "setting": "dose: 0.23 mg/kg/injection, schedule: Q01DX009 (ip), vehicle: saline", "result": "100 % of control, 113 % of control, 160 % of control"}]}
{"smiles": "c1ccc([P+](c2ccccc2)(c2ccccc2)c2ccccc2)cc1", "values": [{"measurement": "T/C", "setting": "dose: 1.7 mg/kg/injection, schedule: Q04DX003 (ip), vehicle: saline", "result": "110 % of control and 154 % of control"}]}
{"smiles": "CCC1CN1CC1CO1", "note": "(stereo not given)", "values": [{"measurement": "T/C", "setting": "dose: 132.0 mg/kg/injection, schedule: Q04DX003 (ip), vehicle: Klucel (hydroxypropylcellulose) (HPC)", "result": "122 % of control and 150 % of control"}]}
{"smiles": "CC1=Nc2ccccc2/C1=C\\c1c(C)[nH]c2ccccc12", "values": [{"measurement": "T/C", "setting": "dose: 25.0 mg/kg/injection, schedule: Q01DX009 (ip), vehicle: Klucel (hydroxypropylcellulose) (HPC)", "result": "95 % of control, 100 % of control, 166 % of control"}]}
{"smiles": "O=C(c1ccccc1)C(Cl)C(=O)c1ccccc1", "values": [{"measurement": "T/C", "setting": "dose: 100.0 mg/kg/injection, schedule: Q01DX001 (ip), vehicle: saline with Tween-80", "result": "100 % of control and 160 % of control"}]}
{"smiles": "O=CNc1ccc(/C=C\\c2ccnc3ccccc23)cc1", "values": [{"measurement": "T/C", "setting": "dose: 25.0 mg/kg/injection, schedule: Q01DX009 (ip), vehicle: saline with Tween-80", "result": "118 % of control and 152 % of control"}]}
{"smiles": "O=C1CCCN1.O=C1CCCN1.[Br][Co][Br]", "values": [{"measurement": "T/C", "setting": "dose: 100.0 mg/kg/injection, schedule: Q01DX009 (ip), vehicle: saline", "result": "95 % of control and 154 % of control"}]}
{"smiles": "CC[n+]1ccc(Nc2ccc(NC(=O)c3ccc(C(=O)Nc4ccc(Nc5cc[n+](CC)c(N)n5)cc4)cc3)cc2)nc1N", "values": [{"measurement": "T/C", "setting": "dose: 1.25 mg/kg/injection, schedule: Q01DX009 (ip), vehicle: saline", "result": "115 % of control and 166 % of control"}, {"measurement": "T/C", "setting": "dose: 5.0 mg/kg/injection, schedule: Q01DX009 (ip), vehicle: saline", "result": "119 % of control and 161 % of control"}]}
{"smiles": "Cc1c2oc3c(C)ccc(C(=O)NC4C(=O)NC(C(C)C)C(=O)N5CCCC5C(=O)N(C)CC(=O)N(C)C(C(C)C)C(=O)OC4C)c3nc-2c(C(=O)NC2C(=O)NC(C(C)C)C(=O)N3CCCC3C(=O)N(C)CC(=O)N(C)C(C(C)C)C(=O)OC2C)cc1=O", "note": "(stereo not given)", "values": [{"measurement": "T/C", "setting": "dose: 3.24 mg/kg/injection, schedule: Q04DX003 (ip), vehicle: saline + alcohol", "result": "117 % of control and 157 % of control"}]}
{"smiles": "CCCCCCCCCCCC[N+](C)(C)C", "note": "(tested in a mixture with another compound)", "values": [{"measurement": "T/C", "setting": "dose: 14.0 mg/kg/injection, schedule: Q01DX009 (ip), vehicle: saline", "result": "107 % of control and 157 % of control"}]}
